# Data published in the supplement of paper PMC12423691.
# This is one part of the list. Binding of human transcription factors and regulators to the viral nucleoprotein by AlphaScreen, crude cell-free proteins, amounts not normalised, one pass. Fold of the Venus control; higher = more signal. No active / inactive call. Single-pass screen; sequences are the whole Swiss-Prot entries looked up by name.
# B1: TAF2, Q6P1X5 (protein)
# chain: MPLTGVEPARMNRKKGDKGFESPRPYKLTHQVVCINNINFQRKSVVGFVELTIFPTVANLNRIKLNSKQCRIYRVRINDLEAAFIYNDPTLEVCHSESKQRNLNYFSNAYAAAVSAVDPDAGNGELCIKVPSELWKHVDELKVLKIHINFSLDQPKGGLHFVVPSVEGSMAERGAHVFSCGYQNSTRFWFPCVDSYSELCTWKLEFTVDAAMVAVSNGDLVETVYTHDMRKKTFHYMLTIPTAASNISLAIGPFEILVDPYMHEVTHFCLPQLLPLLKHTTSYLHEVFEFYEEILTCRYPYSCFKTVFIDEAYVEVAAYASMSIFSTNLLHSAMIIDETPLTRRCLAQSLAQQFFGCFISRMSWSDEWVLKGISGYIYGLWMKKTFGVNEYRHWIKEELDKIVAYELKTGGVLLHPIFGGGKEKDNPASHLHFSIKHPHTLSWEYYSMFQCKAHLVMRLIENRISMEFMLQVFNKLLSLASTASSQKFQSHMWSQMLVSTSGFLKSISNVSGKDIQPLIKQWVDQSGVVKFYGSFAFNRKRNVLELEIKQDYTSPGTQKYVGPLKVTVQELDGSFNHTLQIEENSLKHDIPCHSKSRRNKKKKIPLMNGEEVDMDLSAMDADSPLLWIRIDPDMSVLRKVEFEQADFMWQYQLRYERDVVAQQESILALEKFPTPASRLALTDILEQEQCFYRVRMSACFCLAKIANSMVSTWTGPPAMKSLFTRMFCCKSCPNIVKTNNFMSFQSYFLQKTMPVAMALLRDVHNLCPKEVLTFILDLIKYNDNRKNKFSDNYYRAEMIDALANSVTPAVSVNNEVRTLDNLNPDVRLILEEITRFLNMEKLLPSYRHTITVSCLRAIRVLQKNGHVPSDPALFKSYAEYGHFVDIRIAALEAVVDYTKVDRSYEELQWLLNMIQNDPVPYVRHKILNMLTKNPPFTKNMESPLCNEALVDQLWKLMNSGTSHDWRLRCGAVDLYFTLFGLSRPSCLPLPELGLVLNLKEKKAVLNPTIIPESVAGNQEAANNPSSHPQLVGFQNPFSSSQDEEEIDMDTVHDSQAFISHHLNMLERPSTPGLSKYRPASSRSALIPQHSAGCDSTPTTKPQWSLELARKGTGKEQAPLEMSMHPAASAPLSVFTKESTASKHSDHHHHHHHEHKKKKKKHKHKHKHKHKHDSKEKDKEPFTFSSPASGRSIRSPSLSD
# B2: PRKCQ, Q04759 (protein)
# chain: MSPFLRIGLSNFDCGSCQSCQGEAVNPYCAVLVKEYVESENGQMYIQKKPTMYPPWDSTFDAHINKGRVMQIIVKGKNVDLISETTVELYSLAERCRKNNGKTEIWLELKPQGRMLMNARYFLEMSDTKDMNEFETEGFFALHQRRGAIKQAKVHHVKCHEFTATFFPQPTFCSVCHEFVWGLNKQGYQCRQCNAAIHKKCIDKVIAKCTGSAINSRETMFHKERFKIDMPHRFKVYNYKSPTFCEHCGTLLWGLARQGLKCDACGMNVHHRCQTKVANLCGINQKLMAEALAMIESTQQARCLRDTEQIFREGPVEIGLPCSIKNEARPPCLPTPGKREPQGISWESPLDEVDKMCHLPEPELNKERPSLQIKLKIEDFILHKMLGKGSFGKVFLAEFKKTNQFFAIKALKKDVVLMDDDVECTMVEKRVLSLAWEHPFLTHMFCTFQTKENLFFVMEYLNGGDLMYHIQSCHKFDLSRATFYAAEIILGLQFLHSKGIVYRDLKLDNILLDKDGHIKIADFGMCKENMLGDAKTNTFCGTPDYIAPEILLGQKYNHSVDWWSFGVLLYEMLIGQSPFHGQDEEELFHSIRMDNPFYPRWLEKEAKDLLVKLFVREPEKRLGVRGDIRQHPLFREINWEELERKEIDPPFRPKVKSPFDCSNFDKEFLNEKPRLSFADRALINSMDQNMFRNFSFMNPGMERLIS
# B3: POU2F2, P09086 (protein)
# chain: MVHSSMGAPEIRMSKPLEAEKQGLDSPSEHTDTERNGPDTNHQNPQNKTSPFSVSPTGPSTKIKAEDPSGDSAPAAPLPPQPAQPHLPQAQLMLTGSQLAGDIQQLLQLQQLVLVPGHHLQPPAQFLLPQAQQSQPGLLPTPNLFQLPQQTQGALLTSQPRAGLPTQAVTRPTLPDPHLSHPQPPKCLEPPSHPEEPSDLEELEQFARTFKQRRIKLGFTQGDVGLAMGKLYGNDFSQTTISRFEALNLSFKNMCKLKPLLEKWLNDAETMSVDSSLPSPNQLSSPSLGFDGLPGRRRKKRTSIETNVRFALEKSFLANQKPTSEEILLIAEQLHMEKEVIRVWFCNRRQKEKRINPCSAAPMLPSPGKPASYSPHMVTPQGGAGTLPLSQASSSLSTTVTTLSSAVGTLHPSRTAGGGGGGGGAAPPLNSIPSVTPPPPATTNSTNPSPQGSHSAIGLSGLNPSTGPGLWWNPAPYQP
# B4: CTCFL, Q8NI51 (protein)
# chain: MAATEISVLSEQFTKIKELELMPEKGLKEEEKDGVCREKDHRSPSELEAERTSGAFQDSVLEEEVELVLAPSEESEKYILTLQTVHFTSEAVELQDMSLLSIQQQEGVQVVVQQPGPGLLWLEEGPRQSLQQCVAISIQQELYSPQEMEVLQFHALEENVMVASEDSKLAVSLAETTGLIKLEEEQEKNQLLAERTKEQLFFVETMSGDERSDEIVLTVSNSNVEEQEDQPTAGQADAEKAKSTKNQRKTKGAKGTFHCDVCMFTSSRMSSFNRHMKTHTSEKPHLCHLCLKTFRTVTLLRNHVNTHTGTRPYKCNDCNMAFVTSGELVRHRRYKHTHEKPFKCSMCKYASVEASKLKRHVRSHTGERPFQCCQCSYASRDTYKLKRHMRTHSGEKPYECHICHTRFTQSGTMKIHILQKHGENVPKYQCPHCATIIARKSDLRVHMRNLHAYSAAELKCRYCSAVFHERYALIQHQKTHKNEKRFKCKHCSYACKQERHMTAHIRTHTGEKPFTCLSCNKCFRQKQLLNAHFRKYHDANFIPTVYKCSKCGKGFSRWINLHRHSEKCGSGEAKSAASGKGRRTRKRKQTILKEATKGQKEAAKGWKEAANGDEAAAEEASTTKGEQFPGEMFPVACRETTARVKEEVDEGVTCEMLLNTMDK
# B5: DMRT3, Q9NQL9 (protein)
# chain: MNGYGSPYLYMGGPVSQPPRAPLQRTPKCARCRNHGVLSWLKGHKRYCRFKDCTCEKCILIIERQRVMAAQVALRRQQANESLESLIPDSLRALPGPPPPGDAVAAPQPPPASQPSQPQPPRPAAELAAAAALRWTAEPQPGALQAQLAKPDLTEERLGDGKSADNTEVFSDKDTDQRSSPDVAKSKGCFTPESPEIVSVEEGGYAVQKNGGNPESRPDSPKCHAEQNHLLIEGPSGTVSLPFSLKANRPPLEVLKKIFPNQKPTVLELILKGCGGDLVSAVEVLLSSRSSVTGAERTSAEPESLALPSNGHIFEHTLSSYPISSSKWSVGSAFRVPDTLRFSADSSNVVPSPLAGPLQPPFPQPPRYPLMLRNTLARSQSSPFLPNDVTLWNTMTLQQQYQLRSQYVSPFPSNSTSVFRSSPVLPARATEDPRISIPDDGCPFVSKQSIYTEDDYDERSDSSDSRTLNTSS
# B6: NEUROD1, Q13562 (protein)
# chain: MTKSYSESGLMGEPQPQGPPSWTDECLSSQDEEHEADKKEDDLETMNAEEDSLRNGGEEEDEDEDLEEEEEEEEEDDDQKPKRRGPKKKKMTKARLERFKLRRMKANARERNRMHGLNAALDNLRKVVPCYSKTQKLSKIETLRLAKNYIWALSEILRSGKSPDLVSFVQTLCKGLSQPTTNLVAGCLQLNPRTFLPEQNQDMPPHLPTASASFPVHPYSYQSPGLPSPPYGTMDSSHVFHVKPPPHAYSAALEPFFESPLTDCTSPSFDGPLSPPLSINGNFSFKHEPSAEFEKNYAFTMHYPAATLAGAQSHGSIFSGTAAPRCEIPIDNIMSFDSHSHHERVMSAQLNAIFHD
# B7: ZNF668, Q96K58 (protein)
# chain: MEVEAAEARSPAPGYKRSGRRYKCLSCTKTFPNAPRAARHAATHGPADCSEEVAEVKPKPETEAKAEEASGEKVSGSAAKPRPYACPLCPKAYKTAPELRSHGRSHTGEKPFPCPECGRRFMQPVCLRVHLASHAGELPFRCAHCPKAYGALSKLKIHQRGHTGERPYACADCGKSFADPSVFRKHRRTHAGLRPYSCERCGKAYAELKDLRNHERSHTGERPFLCSECGKSFSRSSSLTCHQRIHAAQKPYRCPACGKGFTQLSSYQSHERTHSGEKPFLCPRCGRMFSDPSSFRRHQRAHEGVKPYHCEKCGKDFRQPADLAMHRRVHTGDRPFKCLQCDKTFVASWDLKRHALVHSGQRPFRCEECGRAFAERASLTKHSRVHSGERPFHCNACGKSFVVSSSLRKHERTHRSSEAAGVPPAQELVVGLALPVGVAGESSAAPAAGAGLGDPPAGLLGLPPESGGVMATQWQVVGMTVEHVECQDAGVREAPGPLEGAGEAGGEEADEKPPQFVCRECKETFSTMTLLRRHERSHPELRPFPCTQCGKSFSDRAGLRKHSRTHSSVRPYTCPHCPKAFLSASDLRKHERTHPVPMGTPTPLEPLVALLGMPEEGPA
# B8: SIX3, O95343 (protein)
# chain: MVFRSPLDLYSSHFLLPNFADSHHRSILLASSGGGNGAGGGGGAGGGSGGGNGAGGGGAGGAGGGGGGGSRAPPEELSMFQLPTLNFSPEQVASVCETLEETGDIERLGRFLWSLPVAPGACEAINKHESILRARAVVAFHTGNFRDLYHILENHKFTKESHGKLQAMWLEAHYQEAEKLRGRPLGPVDKYRVRKKFPLPRTIWDGEQKTHCFKERTRSLLREWYLQDPYPNPSKKRELAQATGLTPTQVGNWFKNRRQRDRAAAAKNRLQHQAIGPSGMRSLAEPGCPTHGSAESPSTAASPTTSVSSLTERADTGTSILSVTSSDSECDV
# Molecular target: nucleoprotein N of Crimean-Congo hemorrhagic fever virus
# Assay: AlphaScreen luminescence signal relative to Venus negative control (fold); higher = stronger binding to CCHFV N
# Method: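 AlphaScreen binding of cell-free made, FLAG-GST-tagged human transcription factors and regulators (crude translation products) to biotinylated N protein; signal as fold of the FLAG-GST-Venus control. One pass.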
row,Binder,AlphaScreen luminescence signal
1,B1,2.56
2,B2,2.05
3,B3,2.56
4,B4,2.74
5,B5,2.6
6,B6,3.07
7,B7,1.81
8,B8,85.1
